{
  "source": "PubChem BioAssay AID1479",
  "about": "(National Center for Advancing Translational Sciences (NCATS), 2009)",
  "note": "The campaign covered roughly 280,000 compounds. About 820 (0.29%) were called active. This list was built around the results that the source calls inconclusive (neither active nor inactive); the mix of calls is not that of the screen. Calls come from the whole dose curve; as a rule, active = well fitted curve in either direction with a large enough effect; inconclusive = small, poorly fitted or top-dose-only effect; inactive = flat fitted curve, though single readings scatter. Potencies of inconclusive entries are left out as doubtful fits. The source holds several records for some structures; these can differ, active in one and inactive in another. Potency is the fitted concentration of half-maximal effect; tags give direction and shape of the fitted curve or compound fluorescence and quenching.",
  "data": [
    {"experiment": "Total Fluorescence Counterscreen for Inhibitors of the Interaction of Thyroid Hormone Receptor and Steroid Receptor Coregulator 2", "details": "TRb/SRC2 Texas Red total fluorescence interference; series mostly up to 106 µM", "summary_of_the_method": "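Human TRβ ligand-binding domain (0.6 uM) and Texas Red SRC2 peptide (20 nM) in Tris buffer with 1 uM T3 and 5% DMSO were incubated with pinned compound for 5 hr at ambient temperature. Total fluorescence was computed as S + 2P (555/632 nm).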", "values": [
      {"compound": "COc1ccc(-c2cc(=O)c3ccccc3o2)cc1", "Potency": "inconclusive [quencher, partial curve]"},
      {"compound": "CC(C)Oc1ccc(C(=O)Nc2ccc3oc(-c4ccncc4)nc3c2)cc1", "Potency": "inconclusive [falling, full curve, poor fit]"},
      {"compound": "CC(C)c1ccc(N2C(=O)/C(=C/N(C)C)SC2=S)cc1", "Potency": "active: 28.2 µM [fluorescent]"},
      {"compound": "CCc1nn(CC(=O)Nc2c(C)cc(C)cc2C)c(=O)c2cc3sccc3n12", "Potency": "active: 0.282 µM [quencher]"},
      {"compound": "CCCn1c(CCC(=O)Nc2ccccc2Cc2ccccc2)nc2cc(S(=O)(=O)N3CCOCC3)ccc21", "Potency": "inconclusive [fluorescent, partial curve]"},
      {"compound": "COc1ccc2c(=O)c(OC)c(-c3ccccc3)oc2c1", "Potency": "inconclusive [falling, partial curve, poor fit]"},
      {"compound": "COc1cc(C)ccc1OCCSc1nc2ccc(NC(=O)c3ccc4c(c3)OCO4)cc2s1", "Potency": "inconclusive [falling, full curve, poor fit]"},
      {"compound": "O=c1c2sc3ccccc3c2n(Cc2ccc(F)cc2)c(=O)n1Cc1ccccc1", "Potency": "inconclusive [falling, full curve, poor fit]"},
      {"compound": "CCc1cccc(CC)c1NC(=O)CCS(=O)(=O)c1ccc(Br)cc1", "Potency": "inconclusive [falling, partial curve, poor fit]"},
      {"compound": "COc1ccc(C)cc1NC(=O)c1ccc2c(c1)N(Cc1cccc(Cl)c1)C(=O)c1ccccc1S2=O", "note": "(configuration not stated)", "Potency": "inconclusive [falling, full curve, poor fit]"},
      {"compound": "Cc1ccn2c(=O)c(C(=O)Nc3ccc(F)c(C(F)(F)F)c3)cnc2c1", "Potency": "inconclusive [quencher, full curve]"},
      {"compound": "CC(C)CN(C(=O)COC(=O)c1cc2c(s1)CCC2)C1CCS(=O)(=O)C1", "note": "(configuration not stated)", "Potency": "inactive"},
      {"compound": "Cc1cccc(NC(=O)C(=O)NCC(c2cccnc2)N2CCc3ccccc32)c1C", "note": "(configuration not stated)", "Potency": "inconclusive [falling, full curve, poor fit]"},
      {"compound": "O=C1CCCN1CC1CCCN(Cc2nc(COc3ccccc3)no2)C1", "note": "(configuration not stated)", "Potency": "inactive"},
      {"compound": "CCOc1ccc(CNC(=O)c2ccc3c(c2)sc2nc(-c4ccc(OC)cc4)cn23)cc1", "Potency": "active: 39.8 µM [quencher]"},
      {"compound": "O=c1c2cc(Br)cc(Br)c2oc2nc3n(c(=O)c12)CCCS3", "Potency": "inactive"},
      {"compound": "Cc1ccc(S(=O)(=O)Nc2ccc(-c3ccc(N4CCCCCC4)nn3)cc2)cc1C", "Potency": "inconclusive [falling, full curve, poor fit]"},
      {"compound": "CC(CCO)Nc1nc2c(c(=O)n(C)c(=O)n2C)n1Cc1ccc(Br)cc1", "note": "(configuration not stated)", "Potency": "active: 0.0071 µM [quencher]"},
      {"compound": "COc1ccc(Nc2cc(C(=O)NCCCN3CCN(c4ccc(OC)cc4)CC3)c3ccccc3n2)cc1", "Potency": "inactive"},
      {"compound": "O=C(/C=C/c1ccc(O)c(O)c1)c1ccc(S(=O)(=O)N2CCCCCC2)cc1", "Potency": "inactive"},
      {"compound": "CCC(C)NS(=O)(=O)c1ccc(S(=O)(=O)N(CCc2ccc(OC)c(OC)c2)Cc2cccs2)cc1", "note": "(configuration not stated)", "Potency": "inconclusive [falling, full curve, poor fit]"},
      {"compound": "Cc1ccc2nc(-c3ccc(SCC(=O)Nc4nnc(C)s4)nc3)[nH]c2c1", "Potency": "inactive"},
      {"compound": "O=C(/C=C/C#Cc1cccc(NS(=O)(=O)c2ccccc2)c1)NO", "Potency": "inconclusive [falling, full curve, poor fit]"},
      {"compound": "COc1ccc2c(C)cc(SCC(=O)Nc3nsc(-c4ccccc4C)n3)nc2c1", "Potency": "inconclusive [falling, full curve, poor fit]"},
      {"compound": "Cc1ccc(NC(=O)c2cc3cc(C)ccc3n2C)cc1", "Potency": "inconclusive [falling, partial curve, poor fit]"},
      {"compound": "O=S(=O)(O)c1ccc(N=Nc2c(O)ccc3cc(S(=O)(=O)O)ccc23)cc1", "Potency": "inconclusive [quencher, partial curve]"},
      {"compound": "COc1ccc(COc2cc(-c3cccc(OC)c3)nc3ccc(NC(=O)c4ccc(Cl)cc4)cc23)cc1", "Potency": "inconclusive [quencher, partial curve]"},
      {"compound": "CCN1CCOC(=O)C1CC(=O)Nc1cc(C)ccc1OC", "note": "(configuration not stated)", "Potency": "inconclusive [quencher, full curve]"},
      {"compound": "CCSc1nc2ccccc2n1C(=O)/C=C/c1ccc(OC)c(OC)c1", "Potency": "inactive"},
      {"compound": "N#Cc1ccccc1Cn1c(=O)n(CCCC(=O)NCc2ccc3c(c2)OCO3)c(=O)c2sccc21", "Potency": "inconclusive [falling, full curve, poor fit]"},
      {"compound": "COc1ccc(N(C(=O)c2ccc(OC)c(OC)c2)S(=O)(=O)c2ccc(Cl)cc2)cc1", "Potency": "inconclusive [falling, full curve, poor fit]"},
      {"compound": "CCOc1ccc2c(c1)c(N=NC(=N)N)c(O)n2C", "Potency": "inconclusive [falling, full curve, poor fit]"},
      {"compound": "COc1cccc(CNC(=O)C(=O)NCC(c2ccco2)S(=O)(=O)c2cccs2)c1", "note": "(configuration not stated)", "Potency": "inactive"},
      {"compound": "Cc1ccc(Cn2ccn(Cc3ccccc3F)c(=O)c2=O)cc1", "Potency": "inconclusive [falling, partial curve, poor fit]"},
      {"compound": "COc1ccc(-n2nnnc2-c2ccccc2)cc1", "Potency": "inactive"},
      {"compound": "CCc1ccc(NC(=O)c2sc3nc(C)c(Cl)c(C)c3c2NC(=O)c2ccccc2OC)cc1", "Potency": "active: 10 µM [quencher]"},
      {"compound": "Cc1ccccc1Nc1nc(-c2sc(NC(=O)c3cccc(Cl)c3)nc2C)cs1", "Potency": "inconclusive [fluorescent, partial curve]"},
      {"compound": "COc1cccc2nc3cc(C)c(C)cc3nc12", "Potency": "inactive"},
      {"compound": "COc1cccc(-c2nnn(CC(=O)NC3CCCC3)n2)c1OC", "Potency": "inactive"},
      {"compound": "Cc1[nH]c2ccccc2c1/C=C/C(=O)c1ccncc1", "Potency": "inactive"},
      {"compound": "Cc1cc(=O)c2c(O)c3c(O)cc(=O)c4c3c3c(cc(O)c1c23)C(C)(C)C=4O", "Potency": "inconclusive [fluorescent, full curve]"},
      {"compound": "Cc1cc(C)c(S(=O)(=O)NCCc2sc(-c3cccnc3)nc2C)c(C)c1", "Potency": "inconclusive"},
      {"compound": "COCCn1c(=NC(=O)/C=C/c2ccccc2Cl)sc2cc(NC(C)=O)ccc21", "Potency": "inconclusive [rising, single point]"},
      {"compound": "CC(C)c1c(C(=O)Nc2ccccc2)c(-c2ccccc2)c(-c2ccc(F)cc2)n1CC[C@@H](O)C[C@@H](O)CC(=O)O", "Potency": "inconclusive [falling, partial curve, poor fit]"},
      {"compound": "CCOC(=O)c1c(NC(=O)CSC(=S)N2CCOCC2)sc(C)c1C", "Potency": "inconclusive [falling, full curve, poor fit]"},
      {"compound": "O=C(NN1C(=O)/C(=C/c2cccs2)SC1=S)c1ccccc1", "Potency": "inactive"},
      {"compound": "CC1(C)CC(=O)C2=C(C1)NC1=C(C(=O)c3ccccc31)C2c1ccccc1", "note": "(configuration not stated)", "Potency": "inactive"},
      {"compound": "Cc1ccc(Cl)cc1NC(=O)CN1C(=O)c2cccc3cccc1c23", "Potency": "inconclusive [quencher, partial curve]"},
      {"compound": "CN(C)c1ccc2c(-c3ccccc3)c3ccc(=[N+](C)C)cc-3oc2c1", "Potency": "active: 0.891 µM [fluorescent]"},
      {"compound": "CCc1ccccc1NC(=O)Cn1ccn(-c2cc(C)cc(C)c2)c(=O)c1=O", "Potency": "inconclusive [quencher, full curve]"},
      {"compound": "CCOc1cccc(C2Nc3ccccc3-c3cc(C)nn32)c1O", "note": "(configuration not stated)", "Potency": "active: 0.0004 µM [quencher]"},
      {"compound": "Cc1ccc(-c2nnc(Nc3ccc(Br)cc3)c3ccccc23)cc1S(=O)(=O)N1CCN(C)CC1", "Potency": "inactive"},
      {"compound": "O=C(c1ccc2c(c1)N(Cc1ccccc1)C(=O)c1ccccc1S2(=O)=O)N1CCN(c2ccccc2)CC1", "Potency": "inconclusive [falling, full curve, poor fit]"},
      {"compound": "COC(=O)c1nn(-c2ccc(F)cc2)ccc1=O", "Potency": "inactive"},
      {"compound": "Cc1ccc(NC(=O)CSc2nc(C)c(Cc3ccccc3)c(=O)[nH]2)cc1C", "Potency": "active: 39.8 µM [quencher]"},
      {"compound": "CCOC(=O)C1=C(c2ccccc2)OC(N)=C(C#N)C1c1ccc(Br)s1", "note": "(configuration not stated)", "Potency": "inconclusive [quencher, partial curve]"},
      {"compound": "COc1cccc(N2CCN(C(=O)c3cc4c(=O)n(Cc5ccccc5)ccc4nc3C)CC2)c1", "Potency": "inconclusive [falling, partial curve, poor fit]"},
      {"compound": "O=C(Nc1cccc(Cl)c1)c1cc(-c2ccc3c(c2)OCCO3)on1", "Potency": "active: 10 µM [quencher]"},
      {"compound": "CCN(CC)CCNC(=O)C(=O)NCC(c1cccnc1)N1CCN(c2ccccc2)CC1", "note": "(configuration not stated)", "Potency": "active: 89.1 µM [quencher]"},
      {"compound": "CN1/C(=C\\P(=O)(N(C)C)N(C)C)C(C)(C)c2ccccc21", "Potency": "inconclusive [fluorescent, partial curve]"},
      {"compound": "Cc1ccc(NC(=O)Cn2nnc3ccccc3c2=O)cc1C", "Potency": "inactive"},
      {"compound": "Cn1nnnc1SCCNCc1ccc(OCc2ccccc2Cl)cc1", "Potency": "inconclusive [falling, full curve, poor fit]"},
      {"compound": "O=C(CSc1ccccc1)NCc1ccc2c(c1)CCN2C(=O)c1ccc(Cl)cc1", "Potency": "inconclusive [falling, full curve, poor fit]"},
      {"compound": "CCN(c1ccc(C)cc1)S(=O)(=O)c1nnc(NC(=O)C2CCCCC2)s1", "Potency": "inactive"},
      {"compound": "Cc1ccc(OCC(=O)NCC(c2ccc(Cl)cc2)N2CCCCC2)cc1", "note": "(configuration not stated)", "Potency": "inconclusive [quencher, partial curve]"},
      {"compound": "CCCCNC(=O)c1ccc2nc(-c3ccco3)c(-c3ccco3)nc2c1", "Potency": "inactive"},
      {"compound": "CCc1nn(CC(=O)Nc2cc(C)cc(C)c2)c(=O)c2cc3sccc3n12", "Potency": "inconclusive [falling, full curve, poor fit]"}
    ]}
  ]
}
